In all, about 110,000 compounds were measured (“z-score”: median about -0.1, highest 2% from about 2 on). The list shows a part of the results. The source made the active and inactive calls.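 The calls were made as follows: active = z-score in the third read window above 3 or below -3; inactive = the rest.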
Biological target: Metabotropic glutamate receptor 8 (Rattus norvegicus) (UniProt P70579)
Assay: mGluR8 Gi/Go-coupled signaling modulation – cell-based, rat, thallium flux, HTS, primary screen (AID 488969)
Conditions: HEK293 rat mGluR8, GIRK (G protein-gated inwardly rectifying potassium channel) thallium flux, FluoZin2; at 10 µM; stronger effect = higher value; submaximal glutamate (EC20) added with thallium

Chain of UniProt P70579 (P70579 whole entry, looked up): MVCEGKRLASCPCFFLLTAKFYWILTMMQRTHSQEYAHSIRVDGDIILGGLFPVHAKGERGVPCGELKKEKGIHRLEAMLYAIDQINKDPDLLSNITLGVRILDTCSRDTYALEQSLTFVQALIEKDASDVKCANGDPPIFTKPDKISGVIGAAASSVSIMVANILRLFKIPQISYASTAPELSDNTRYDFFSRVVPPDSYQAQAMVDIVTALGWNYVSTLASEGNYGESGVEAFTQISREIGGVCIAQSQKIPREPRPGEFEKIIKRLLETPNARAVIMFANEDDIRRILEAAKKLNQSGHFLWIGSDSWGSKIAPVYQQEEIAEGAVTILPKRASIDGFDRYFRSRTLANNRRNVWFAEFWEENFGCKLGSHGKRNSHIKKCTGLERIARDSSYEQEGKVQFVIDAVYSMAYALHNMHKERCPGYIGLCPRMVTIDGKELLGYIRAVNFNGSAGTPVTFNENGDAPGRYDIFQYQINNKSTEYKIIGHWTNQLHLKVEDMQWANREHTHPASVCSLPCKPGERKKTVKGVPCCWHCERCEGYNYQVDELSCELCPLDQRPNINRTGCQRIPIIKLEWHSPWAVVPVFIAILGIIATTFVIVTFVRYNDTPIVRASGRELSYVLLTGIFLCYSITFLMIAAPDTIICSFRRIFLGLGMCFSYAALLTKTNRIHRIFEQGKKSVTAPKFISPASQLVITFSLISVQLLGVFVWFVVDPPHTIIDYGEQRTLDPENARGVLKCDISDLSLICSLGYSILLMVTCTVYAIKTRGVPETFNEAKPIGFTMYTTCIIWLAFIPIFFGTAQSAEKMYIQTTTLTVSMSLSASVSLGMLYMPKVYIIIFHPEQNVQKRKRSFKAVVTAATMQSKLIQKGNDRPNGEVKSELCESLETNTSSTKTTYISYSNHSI

| Compound | z-score |
| --- | --- |
| CN(c1ccc(C(=O)N2CCOCC2)cc1)S(C)(=O)=O | -0.193 |
| CCc1ccc(S(=O)(=O)c2n[nH]n3c2nc(=O)c2ccccc23)cc1 | 0.475 |
| Cc1c2cccn2cc[n+]1C | -0.16 |
| COc1ccc(C2CC(c3cccs3)=NN2C(=O)COC(=O)c2cc3ccccc3cc2O)cc1OC (stereo not given) | 0.101 |
| CCOc1nc(-c2ccncc2)nc2ccccc12 | -0.619 |
| Cc1cc(C)cc(NS(=O)(=O)c2ccc3[nH]cc(C(=O)NCc4ccco4)c(=O)c3c2)c1 | 0.218 |
| Cc1nn(-c2ccccc2)c(C)c1NC(=O)COc1ccc2ccccc2c1 | -0.197 |
| CN(c1ccccc1)S(=O)(=O)c1cc(C(=O)N2CCN(c3ccccn3)CC2)ccc1Cl | -0.278 |
| NC(=O)C1CCN(C(=O)CSc2ccccn2)CC1 | 0.269 |
| Cc1ccc(C2N(c3ccccc3)C(=S)N3CCCN23)cc1 (stereo not given) | -0.625 |
| Cc1nc2ccc(NC(=O)c3cccc(S(=O)(=O)N4CC(C)OC(C)C4)c3)cc2s1 (stereo not given) | 0.116 |
| CCCOC(=O)C1[C@H]2C(=O)N(CCCOC)C[C@]23C=C[C@H]1O3 (stereo not given in full) | 0.152 |
| O=C(O)CCC(=O)Nc1ccc(N2CCCCC2)c(C(=O)O)c1 | 0.0405 |
| O=C(O)CN(c1ccccn1)S(=O)(=O)c1ccc(Cl)cc1 | -0.778 |
| O=c1ccc2ccc(Oc3ccc([N+](=O)[O-])cc3[N+](=O)[O-])cc2o1 | 0.372 |
| O=[N+]([O-])c1nn(-c2ccc3c(c2)OCCO3)n(O)c1=NCCCO | 0.188 |
| CC(=O)c1ccc(-n2c(SCC(=O)c3c[nH]c4ccccc34)nc3ccccc3c2=O)cc1 | 0.548 |
| CCC(C)n1c(SCc2ccc([N+](=O)[O-])cc2)nc2ccsc2c1=O (stereo not given) | 0.36 |
| COc1ccc(N(CC(=O)NN=C2CCCCCCC2)S(=O)(=O)c2ccccc2)cc1 | -0.421 |
| Cc1ccc(-c2cc(C(=O)Nc3cc(C)on3)c3ccccc3n2)c(C)c1 | -0.549 |
| Nc1ccc2oc3ccccc3c2c1 | -0.124 |
| Cc1cc(NC(=O)c2cc(-c3ccccc3)on2)no1 | 0.0825 |

| Compound | z-score |
| --- | --- |
| CCOC(=O)c1c(C)nc2c(c1-c1ccccc1)C(=O)CCC2 | -0.0671 |
| O=C(NC1CC1)c1cc(=O)c2ccccc2o1 | -0.109 |
| CCCCc1c(O)nc(SCC(=O)N2CCOCC2)n(-c2ccccc2C)c1=O | -0.925 |
| CC1=C(C)[N+](=O)C2CCCCC2N1[O-] (stereo not given) | -0.196 |
| OC(CCN1CCOCC1)(c1ccc(Cl)cc1)C1CCCCC1 (stereo not given) | -0.807 |
| O=C(COc1ccc([N+](=O)[O-])cc1Cl)NCCc1ccccc1 | -0.38 |
| CCOC(=O)c1sc2ncn(/N=C/N(C)C)c(=O)c2c1C | 0.0203 |
| Cc1cccc(NC(=O)C2CCCN(S(=O)(=O)c3cccc4cccnc34)C2)c1 (stereo not given) | -0.0863 |
| COC(=O)c1ccc2c(=O)[nH]c(CSc3nnc(C(F)(F)F)n3C)nc2c1 | -0.0782 |
| CCOC(=O)c1c(C)[nH]c(C(=O)COC(=O)c2cnc(C)cn2)c1C | -0.736 |
| O=C(c1cccc(Cl)c1)N1CCCC(C(=O)N2CCCCCC2)C1 (stereo not given) | 0.315 |
| COc1cccc(OCCc2c(C)n[nH]c2C)c1 | 1.21 |
| Cc1ccc(/C=C/C(=O)NC2=NCCS2)cc1 | -0.0354 |
| Cc1cccc2sc(NC(=O)c3ccc(NS(=O)(=O)c4cccs4)cc3)nc12 | -0.134 |
| CC(c1ccccc1)n1c(NCCCn2ccnc2)nc2c1c(=O)[nH]c(=O)n2C (stereo not given) | 0.068 |
| COc1ccc(CCC(C)NCC2CCCCC2)cc1 (stereo not given) | 0.819 |
| CCn1c(SCC(=O)NC(=O)NCc2ccco2)nc2sc(C)c(C)c2c1=O | active: 3.05 |
| O=C(Cn1c(=O)n(CCC(=O)N2CCc3ccccc3C2)c(=O)c2ccccc21)NCC1CCCO1 (stereo not given) | -0.331 |
| CCOc1cc(NC(=O)c2ccco2)c(OCC)cc1NC(=O)c1cc(OC)c(OC)c(OC)c1 | -0.394 |
| Cc1ccc(-c2cc(C(=O)NCCCn3ccnc3)c3cc(Br)ccc3n2)o1 | 0.0695 |
| COc1ccc(-c2nc3ccccc3c(C(=O)Nc3ccc(S(=O)(=O)Nc4cc(C)on4)cc3)c2C)cc1 | -0.279 |
| CCCc1nnc(NC(=O)CCC(=O)N2CCN(CCOc3ccc(C)cc3)CC2)s1 | -0.508 |

| Compound | z-score |
| --- | --- |
| O=C(Nc1cccc(S(=O)(=O)N2CCCCCC2)c1)c1ccc2c(c1)OCO2 | -0.732 |
| CCN(CC)S(=O)(=O)c1ccc(Br)c(OC)c1 | -0.193 |
| CCC(=O)Nc1ccccc1C(=O)OC(c1ccccc1)c1ccccc1 | -0.206 |
| Cc1cccc(C(=O)NC(NCc2ccco2)C(Cl)(Cl)Cl)c1 (stereo not given) | -0.117 |
| Cc1ccc(CCC(=O)Nc2ccc(S(N)(=O)=O)cc2)o1 | 0.405 |
| O=C(COC(=O)CC1c2ccccc2CCN1S(=O)(=O)c1ccccc1)Nc1ccccc1 (stereo not given) | -0.318 |
| CC1(C)Cc2c(c(=S)nc(-c3ccccc3)n2CCN2CCOCC2)CO1 | -0.443 |
| CSc1nc(Oc2ccc(F)cc2F)cc(C(F)(F)F)n1 | -0.141 |
| C=CCc1cc(OC)ccc1OCC(O)CN1CCN(c2ccc(OC)cc2)CC1 (stereo not given) | -0.217 |
| CCOC(=O)/C(C#N)=C(/C)c1ccc(OC)cc1 | 0.395 |
| CC(=O)c1cccc(NC(=O)c2ccc3c(Cl)c4c(nc3c2)CCCC4)c1 | 0.12 |
| COc1ccc(CCNC(=O)CSc2nc(O)c(C(C)C)c(=O)[nH]2)cc1OC | -0.13 |
| CC(C)(C)Nc1c(N)c(=O)oc2ccccc12 | -0.0357 |
| Cc1ccc(-n2c(SCc3cc(=O)n4ccsc4n3)nnc2-c2cccnc2)c(C)c1 | -0.0941 |
| C/C=C/c1ccc(OCCCn2cncn2)c(OC)c1 | 0.205 |
| COc1cc(OC)cc(C(=O)N(Cc2cc3cc(C)ccc3[nH]c2=O)C(C)C)c1 | -0.195 |
| C/C=N/NC(=O)c1cc(Br)ccc1O | -0.0515 |
| CS(=O)(=O)NCc1ccc(C(=O)NCCOc2ccccc2)cc1 | 0.0505 |
| O=C(N/N=C/c1ccccn1)c1ccc(Br)o1 | -0.0401 |
| COc1ccc(/C=C2\CCC(C3CCCC3)C2=O)cc1Cn1cccn1 (stereo not given) | -0.0698 |
| Cc1nn2c(=O)c(NC(=O)c3ccc(F)cc3)cnc2s1 | -0.186 |
| CCOC(=O)C1CSc2[nH]c(=O)sc2C1c1ccccc1 (stereo not given) | -0.412 |

| Compound | z-score |
| --- | --- |
| CC1CN(C(=O)c2ccc(COCC(F)(F)F)o2)CC(C)O1 (stereo not given) | -0.415 |
| c1ccc(CSc2ncnc3c2oc2ccccc23)cc1 | -0.0438 |
| COc1ccc(N(C)S(=O)(=O)c2c(C)[nH]c(=O)[nH]c2=O)cc1 | 0.02 |
| Cc1cccc(N/N=C2/COC(C)(C)CC2=O)c1 | -0.253 |
| COc1ccccc1NS(=O)(=O)c1cccc(C(=O)NN)c1 | 0.0093 |
| Cc1ccc(NC(=S)NNC(=O)CSc2nnc(-c3ccc(Cl)cc3)n2C2CCCCC2)cc1 | 0.656 |
| CCOC(=O)N1CCN(C(=S)Nc2cccc(C)c2)CC1 | -0.15 |
| O=C(NCCCN1CCOCC1)c1cc(-c2ccc3c(c2)OCO3)nc2ccccc12 | 0.143 |
| COC(=O)CN1C(=S)N(c2ccc(Cl)cc2)C(=O)C1CC(=O)Nc1ccc(F)cc1 (stereo not given) | -0.000325 |
| COCCNS(=O)(=O)c1cc(Br)ccc1OC | -0.824 |
| O=C(Cn1c(-c2cncs2)nc2ccccc21)NC1CCCC1 | -0.104 |
| O=S(CC1CC1(Cl)Cl)CC1CC1(Cl)Cl (stereo not given) | 0.433 |
| O=C(NCc1ccc2c(c1)OCO2)C12CC3CC(CC(C3)C1)C2 | -0.186 |
| CCN(c1cccc(C(F)(F)F)c1)S(=O)(=O)c1ccc2c(c1)CCN2C(C)=O | 0.212 |
| Cc1cnc(C(=O)Nc2ccc(N3CCOCC3)cc2)cn1 | 0.504 |
| C=CCn1c(-c2ccc(OC)c(OC)c2)n[nH]c1=S | -0.372 |
| O=C(NCc1ccco1)c1ccc2c(=O)n(-c3ccccc3)c(=S)[nH]c2c1 | 0.0493 |
| COC(=O)Cc1ccc(NC(=O)c2ccc(C(C)(C)C)cc2)cc1 | -0.0938 |
| COc1ccc(S(=O)(=O)N2CCN(C)CC2)cc1C | 0.151 |
| COc1ccc(N=C2C(=Nc3ccc(OC)cc3)N(c3ccc(N(C)C)cc3)C(=S)N2c2ccc(OC)cc2)cc1 | -0.108 |
| CCOC(=O)CSc1snnc1C | 0.0387 |
| CCOC(=O)c1cnc(-n2nc(C)cc2C)nc1N(C)C | -0.262 |

| Compound | z-score |
| --- | --- |
| Cc1cc(C(=O)NCC(=O)OCC(=O)N2CCCCCC2)ccc1[N+](=O)[O-] | -0.275 |
| CCOCCn1c(CN2CCN(c3ccc(F)cc3)CC2)nc2c1c(=O)n(C)c(=O)n2C | 0.371 |
| Cc1ccc(S(=O)(=O)N2CCC(C(=O)NCCN3CCCCCC3)CC2)cc1 | 0.917 |
| Clc1cc(Sc2ccc(Br)cc2)nnc1-c1ccccc1 | -0.683 |
| O=C(CSc1nc(-c2ccco2)cc(C(F)(F)F)n1)Nc1ccc2c(c1)CCC2 | -0.138 |
| CCOc1cc(NC(=S)NCC2CCCO2)c(OCC)cc1NC(=O)c1ccc(C)cc1 (stereo not given) | -0.0803 |
| CC(C)=CC(=O)NCCc1ccccc1 | -0.064 |
| O=C(c1ccco1)N1CCN(CC(=O)N2CCCc3c2c(=O)oc2ccc(O)cc32)CC1 | 0.248 |
| CCOc1ccccc1OCC(=O)NN1Cc2ccccc2C1=N | -0.00532 |
| Cc1nn(-c2ccccc2)c(C)c1/C=N/NC(=O)c1cc(-c2ccc(Br)s2)[nH]n1 | -1.6 |
| CCC(=O)c1ccc(N2CCN(C(=O)COc3ccc(F)cc3)CC2)c(F)c1 | 0.561 |
| CCOC(=O)c1cccc(NC(=O)C2CCN(S(=O)(=O)c3cccs3)CC2)c1 | -2.13 |
| O=C(CSc1nc2cc([N+](=O)[O-])ccc2n1-c1ccccc1)NCc1ccc2c(c1)OCO2 | -0.153 |
| CN(C)c1ccc(NC(=S)N(CCc2ccccc2)C2CC(=O)N(c3c(Cl)cccc3Cl)C2=O)cc1 (stereo not given) | 0.0623 |
| O=C1NC2=C(CCc3ccccc32)C(c2ccc(Br)cc2)N1 (stereo not given) | -1.97 |
| Cc1ccc([C@@H]2C3COCC=C3C(C#N)=C(N)C2(C#N)C#N)o1 (stereo not given in full) | -0.744 |
| Nc1nc2nonc2nc1N1CCCCC1 | -0.205 |
| Cc1ccc(Oc2ccc(C(=O)NC3CCSC3=O)cn2)cc1 (stereo not given) | 0.0747 |
| CCOc1ccc(NC(=O)C(=O)NCCCn2ccnc2)cc1 | 0.096 |
| CN1C(=O)c2ccccc2N(C)C1c1ccc2c(c1)OCO2 (stereo not given) | -0.718 |
| COc1ccc(Cn2ccnc2)cc1Br | -0.0251 |
| COCCn1c(C)cc(C2=NNC(=Nc3ccc(F)cc3)SC2)c1C | 0.377 |
